# Results: PubChem BioAssay AID488969 (Vanderbilt High Throughput Screening Facility, 2010)
# Whole data set: some 110,000 compounds, median “z-score” near -0.1, cut for the highest 2% near 2. Some of the results follow. The source made the active and inactive calls.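 Rule for the calls: active = z-score in the third read window above 3 or below -3; inactive = the rest.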
# Target: Metabotropic glutamate receptor 8 (Rattus norvegicus) (UniProt P70579)
# Assay: rat mGluR8 modulators via GIRK flux, primary screen, cell-based, thallium flux, HTS (AID 488969)
# Conditions: HEK293 rat mGluR8, GIRK (G protein-gated inwardly rectifying potassium channel) thallium flux, FluoZin2; at 10 µM; stronger effect = higher value; submaximal glutamate (EC20) added with thallium
# Sequence of UniProt P70579 (P70579 whole entry, looked up): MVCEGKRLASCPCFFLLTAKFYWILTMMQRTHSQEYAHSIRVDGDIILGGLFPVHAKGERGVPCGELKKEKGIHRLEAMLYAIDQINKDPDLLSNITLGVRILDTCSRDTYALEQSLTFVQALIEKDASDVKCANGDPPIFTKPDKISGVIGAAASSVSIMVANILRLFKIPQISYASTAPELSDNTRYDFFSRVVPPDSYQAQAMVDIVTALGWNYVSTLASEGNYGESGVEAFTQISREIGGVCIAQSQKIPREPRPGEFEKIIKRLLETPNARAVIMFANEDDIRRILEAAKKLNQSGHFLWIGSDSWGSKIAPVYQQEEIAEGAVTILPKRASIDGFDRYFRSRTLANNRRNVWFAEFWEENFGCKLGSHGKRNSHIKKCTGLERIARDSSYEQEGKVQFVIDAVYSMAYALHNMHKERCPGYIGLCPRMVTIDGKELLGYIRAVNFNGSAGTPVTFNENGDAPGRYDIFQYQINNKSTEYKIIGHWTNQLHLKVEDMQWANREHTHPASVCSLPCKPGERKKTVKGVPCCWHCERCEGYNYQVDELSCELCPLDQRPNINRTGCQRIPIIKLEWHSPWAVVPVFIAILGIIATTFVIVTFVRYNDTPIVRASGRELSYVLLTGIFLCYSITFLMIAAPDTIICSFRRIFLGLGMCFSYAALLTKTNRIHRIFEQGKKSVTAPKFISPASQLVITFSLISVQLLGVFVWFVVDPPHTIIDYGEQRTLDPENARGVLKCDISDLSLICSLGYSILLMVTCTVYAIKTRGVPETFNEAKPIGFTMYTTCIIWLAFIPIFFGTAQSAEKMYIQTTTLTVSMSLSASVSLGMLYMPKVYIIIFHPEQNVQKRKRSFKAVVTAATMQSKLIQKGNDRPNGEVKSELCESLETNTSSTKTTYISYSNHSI
row,Compound,z-score
1,Cc1ccc(/C=N\NC(=O)c2csnn2)cc1,0.237
2,Cc1ccc(C)c2[nH]c(=O)c(CN(Cc3cccs3)C(=S)NCc3ccco3)cc12,-0.0745
3,C=CCc1c(C)nc(SCC(N)=O)[nH]c1=O,0.00508
4,CCCCNC(=O)CC1N=C2c3ccccc3N=C(SCC(=O)Nc3ccccc3C)N2C1=O (stereo not drawn),-0.545
5,COc1ccc2c(c1)C(=O)N(c1ccccc1OC)C(=O)C2(C)C,0.943
6,COc1ccc(CCn2nnnc2C(c2ccc(C)cc2)N2CCN(C)CC2)cc1OC (stereo not drawn),0.0408
7,C#CCOc1ccc2c(C)cc(=O)oc2c1,-0.0974
8,Cc1nnc(SCC(=O)N2CCN(c3ccccc3)CC2)n1-c1ccccc1,-0.268
9,O=C(O)CCC(=O)c1ccc2c(c1)OCCO2,-0.256
10,O=C(NCCc1ccccc1)C1CCC(Cn2c(=O)c3ccccc3n(Cc3cccc(F)c3)c2=O)CC1 (stereo not drawn),-0.021
11,O=C(CSc1ccc(Cl)cc1)N1CCN(c2ncc(C(F)(F)F)cc2Cl)CC1,-0.0561
12,CC(=O)Nc1cccc(NC(=O)Nc2ccc(C(C)=O)cc2)c1,0.0984
13,NNC(=O)c1ccc([N+](=O)[O-])c(CS(=O)(=O)c2ccc(Cl)cc2)c1,0.293
14,O=P(O)(CP(=O)(c1ccccc1)c1ccccc1)c1ccccc1O,-0.233
15,CCOC(=O)N1CCN(C(=O)c2cccn3c(=O)c4cc(Cl)ccc4nc23)CC1,-0.274
16,Cc1ccccc1N/N=C/c1ccc(N2CCOCC2)cc1,-0.279
17,c1ccc(-c2cnn3nnnc3n2)cc1,0.318
18,C/C(=N\NC(=S)NC(C)C)c1ccc(-n2ccnc2)cc1,-0.306
19,Cc1ccc(-c2nn(CC(=O)N(C)C)c(=O)c3ccccc23)cc1S(=O)(=O)N(C)C,-0.0742
20,Cc1nn(Cc2cccc(F)c2)c(C)c1NC(=O)c1c([N+](=O)[O-])c(C)nn1C,0.203
21,CCOC(=O)c1c(C)nc2c(c1-c1cc(OC)ccc1OC)C(=O)c1ccccc1-2,0.434
22,Cc1ccc(SCCNC(=O)c2ccc(C)c([N+](=O)[O-])c2)cc1,-0.0609
23,O=c1oc2ccccc2cc1-c1nc(-c2cccs2)cs1,-0.0538

row,Compound,z-score
1,COc1cc(CNCCN2CCOCC2)ccc1OCc1c(Cl)cccc1Cl,0.114
2,Cc1ccc2c(c1)OC(=O)CC2c1ccccc1 (stereo not drawn),-2.21
3,CCOc1ccc(Br)cc1CSC(=N)N,1.29
4,CCCCCc1nc(-c2nonc2N)no1,-0.0762
5,O=C(Nc1ccc2c(c1)OCCO2)C1CCN(C(=O)c2ccc(Br)cc2)CC1,-0.876
6,CCOC(=O)c1cnc2c(cnn2C)c1NCCC(O)C(F)(F)F (stereo not drawn),-0.0585
7,CCC(=O)Nc1ccc(-c2csc(NNC(C)=O)n2)cc1,-0.182
8,O=C(COc1ccc(S(=O)(=O)NCc2ccccc2)cc1)NCC1CCCO1 (stereo not drawn),-0.16
9,COc1cc(S(=O)(=O)N2CCC(c3nc4ccccc4s3)CC2)ccc1S(=O)(=O)NC1CCCC1,0.23
10,C=CCN(c1ccccc1)S(=O)(=O)c1cccc(C(=O)Nc2nnc(SCC)s2)c1,-1.12
11,Cc1nn(Cc2ccccc2)c2c1C(c1cccnc1)C(C#N)=C(N)O2 (stereo not drawn),-0.257
12,O=C1CCCN1CN(C(=O)c1ccccc1)c1ccc(F)cc1,-0.0318
13,Cc1cc2nn(-c3cccc4ccccc34)nc2cc1NC(=O)c1cccs1,0.924
14,CO/N=C/NC(=O)c1c(OC)ccnc1Oc1ccccc1,0.157
15,O=C(CSc1nnc(-c2ccco2)o1)NC1CCCCC1,-0.545
16,Cn1c(=O)cc(SCC(=O)NCC2CCCO2)c2ccc(Cl)cc21 (stereo not drawn),0.0952
17,COc1cccc(-n2nnc3c(=O)n(CC(=O)N4CCC(Cc5ccccc5)CC4)cnc32)c1,-0.381
18,CCn1c(COc2ccc(C)cc2)nnc1SCC(=O)NNC(=O)c1ccc(OC)cc1,0.144
19,Cc1nc(-c2cccnc2)sc1C(=O)Nc1cccc(C(F)(F)F)c1,-0.458
20,Cc1cc(C)c2c(N)c(C(=O)Nc3ncc(C)s3)sc2n1,0.416
21,CC(C)(C)c1ccc(-c2csc(NC(=O)CN3C(=O)NC4(CCCCC4)C3=O)n2)cc1,0.237
22,Cc1ccc(CN2CCN(/N=C/c3ccc(C(=O)O)cc3)CC2)cc1,0.363
23,CCCCN(C(=O)Cn1nnc2ccccc21)C(C(=O)NCCOC)c1ccc(OC)cc1 (stereo not drawn),0.128

row,Compound,z-score
1,C=CCn1c(=O)n(CCOC)c(=O)c2sc3ccccc3c21,0.137
2,COc1ccc(NC(=O)CCC(=O)Nc2nnc(C(F)(F)F)s2)c(OC)c1,0.256
3,CC1(C)Oc2cc(N)c([N+](=O)[O-])cc2O1,-0.195
4,CCOC(=O)c1cc(C)sc1NC(=O)c1ccc(Cl)s1,0.0286
5,Cc1ccnc(NS(=O)(=O)c2ccc(NC(=O)c3c(-c4ccccc4Cl)noc3C)cc2)n1,-0.0236
6,CCOC(=O)C(NS(=O)(=O)c1ccccc1)(C(F)(F)F)P(=O)(OCC(C)C)OCC(C)C (stereo not drawn),0.767
7,O=C(NC1CCCCC1)C(c1ccc(O)cc1)N(CC1CCCO1)C(=O)C1COc2ccccc2O1 (stereo not drawn),0.338
8,CSc1nc(-c2ccco2)nn1S(C)(=O)=O,-0.121
9,COc1ccc(-n2c(=O)[nH]cc(C(=O)Nc3ccc(NC(C)=O)cc3)c2=O)cc1,active: 9.34
10,Cc1c(Cl)c(-c2n[nH]c(=S)n2-c2ccc(F)cc2)nn1C,-0.0208
11,CCOC(=O)Nc1c(O)ccc2oc(C)c(-c3ccccc3)c12,-0.541
12,CC(NC(=S)N1CCOCC1)c1ccccc1 (stereo not drawn),-0.159
13,COCCNC(=O)C(c1cccs1)N(Cc1cccs1)C(=O)Cn1nnc2ccccc21 (stereo not drawn),-0.531
14,CCn1c(=O)cc(O)c2c(=O)n(C)c(=O)n(C)c21,0.212
15,C=C(C)c1cccc(C(C)(C)NC(=O)N2CC(C)OC(C)C2)c1 (stereo not drawn),-0.0325
16,O=C(CC1C(=O)N(c2ccccc2)C(=S)N1c1ccccc1)c1ccc(Br)cc1 (stereo not drawn),-0.0821
17,O=C(Nc1ccc(SC(F)F)cc1)C12CCC(CC1)C2,active: 3.38
18,CCn1cc(C(=O)NCCN(C)CCc2ccccc2)c(=O)c2cc(S(=O)(=O)N(C)C)ccc21,0.267
19,COc1cc(/C=N/n2cnnc2)ccc1OCCSc1ccc(C)cc1,-0.194
20,Cc1cccc(C)c1NC(=O)COc1cccc(/C=N/NC(=O)C(=O)NCc2ccccc2)c1,-0.327
21,COc1ccc(N2C(=O)CC(N3CCN(S(=O)(=O)c4c(F)cccc4F)CC3)C2=O)cc1OC (stereo not drawn),0.106
22,CSc1ccc(CCNC(=O)C2CCN(c3nnc(-n4cccc4)s3)CC2)cc1,-0.065
